Assay results as given in ChEMBL document CHEMBL1201862, “PubChem BioAssay data set” (2004).
Values joined by “and” are separate entries in the source; they are usually repeats but may differ in a detail not shown here. Equal entries are not always repeated.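 Step 1: Grow cells in 96-well plates. Step 2: Expose to compound for 48 hours at 5 concentrations. Step 3: Interpolate endpoints linearly; if unreached, use highest concentration. GI50 is the concentration that inhibits growth by half.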 Active and inactive are the calls of the source. Cut-off read from the data, not from the text of the source: active = GI50 up to about 1.1 µM and inactive = higher.

What follows are molecules tested on NCI-H322M (assay: DTP human tumour cell line panel, 48 h).
For `CN(C)c1ccc(C(c2ccc(N(C)C)cc2)c2ccc([N+](=O)[O-])cc2)cc1`, the GI50 was inactive: > 100 µM.
In the case of `CC(NC(=O)c1ccccc1)(C(=O)O)C(=O)O`, the GI50 is reported as inactive: > 100 µM.
In the case of `COC1=C(C)C(=O)C2=C(C1=O)C(CO)N1C(C#N)C3CC4C(C1C2N1CCOC41)N3C` (configuration not stated), the GI50 is reported as active: 242 nM and active: 282 nM.
In the case of `Cl/C(=C\C=N\c1ccc(I)cc1)c1ccc2ccccc2c1`, the GI50 is reported as inactive: 22.6 µM.
`CC(C)C1CSC2N1C(=O)C2(OCc1ccccc1)C1CC1` (configuration not stated) was tested, and the GI50 was inactive: > 100 µM.
In the case of `COC(=O)/C(=C/c1ccc(OC)cc1)NC(=O)c1ccccc1`, the GI50 is reported as inactive: > 100 µM.
`O=C1c2[nH]c3ccccc3c2CCN2CCCCC12` (configuration not stated) was tested, and the GI50 was inactive: 48.5 µM.
`O=C(/C=C1/Nc2ccc([N+](=O)[O-])cc2NC1O)c1cccc([N+](=O)[O-])c1` (configuration not stated) was tested, and the GI50 was inactive: 87.1 µM.
`CC(=O)OCC1OC(OCCCCCCO)C(OC(C)=O)C(OC(C)=O)C1OC(C)=O` (configuration not stated) was tested, and the GI50 was inactive: > 100 µM.
With `Cc1cc2c(cc1Cl)SC(NNC(=O)c1ccco1)=NS2(=O)=O` the GI50 was inactive: > 10 µM.
In the case of `COC[C@@H](/N=C/c1ccc(OC)cc1)C(C)C`, the GI50 is reported as inactive: > 100 µM.
For `O=C(Nc1nnn[nH]1)c1nc(O)cc(-c2ccccc2)n1`, the GI50 was inactive: > 100 µM.
`COc1cc2c(cc1OC)C(CC(=O)NN=C(C)C)NCC2` (configuration not stated) was tested, and the GI50 was inactive: > 100 µM.
In the case of `N#Cc1cc([N+](=O)[O-])ccc1NC(=O)C(=O)C(C(=O)c1ccc2ccccc2c1)C1OCc2ccccc21` (configuration not stated), the GI50 is reported as inactive: 10.6 µM.
`Cc1cc(NS(=O)(=O)c2ccc(Nc3c4ccccc4nc4c(C(=O)N5CCN(CCO)CC5)cccc34)cc2)no1` was tested, and the GI50 was inactive: > 100 µM.
`CCc1c(Cc2cccc3ccccc23)n2c(nc1=O)SCC2OCCO` (configuration not stated) was tested, and the GI50 was inactive: 95.9 µM.
With `OC1(c2ccccc2)C2CCN(CC2)C1CN1CCOCC1` (configuration not stated) the GI50 was inactive: > 100 µM.
For `CCCc1ccc(/N=C\c2cc(OC)c(OC)c(OC)c2)cc1`, the GI50 was inactive: > 100 µM.
For `CC(=O)NC1=C(Sc2ccc(Cl)cc2)C(=O)c2ccccc2C1=O`, the GI50 was inactive: 14.8 µM.
In the case of `COc1ccc2c3c(c(C(=O)O)oc13)CCC2`, the GI50 is reported as inactive: > 100 µM.
`CS/C(=N\Nc1cnc2ccccc2n1)NS(=O)(=O)c1cc(C)c(Cl)cc1Cl` was tested, and the GI50 was inactive: > 100 µM.
In the case of `COc1ccc2c3c([nH]c2c1[N+](=O)[O-])C(C)N(Cc1ccc([N+](=O)[O-])cc1)CC3` (configuration not stated), the GI50 is reported as inactive: 12.3 µM.
With `c1ccc2c[n+](Cc3ccnc4ccccc34)ccc2c1` the GI50 was inactive: > 100 µM.
`Cc1ccc(NC(=O)/C(=N\NC(N)=O)c2c(O)c3ccccc3[nH]c2=O)cc1` was tested, and the GI50 was inactive: > 100 µM.
`CC(C)CC(NC(=O)C(CCI)Cc1ccccc1)C(=O)Nc1ccccc1` (configuration not stated) was tested, and the GI50 was inactive: > 100 µM.
`CCOC(=O)c1ccc(OCc2nc3cc(C(F)(F)F)ccc3nc2-c2ccccc2)cc1` was tested, and the GI50 was inactive: > 100 µM.
With `CC(C)(C)[Si](C)(C)OCCc1ccccc1C1CC2(S(=O)(=O)c3ccccc3)ON1CC2S(=O)(=O)c1ccccc1` (configuration not stated) the GI50 was inactive: > 100 µM.
With `COc1cc(OC)c(C/C=C/c2ccccc2)cc1O` the GI50 was inactive: 16 µM.
`CCN1c2ccccc2NC(=S)c2c(-c3ccccc3)n[nH]c21` was tested, and the GI50 was inactive: 62.1 µM.
With `O=C(Cc1ccc(OCc2cccc(Cl)c2)cc1)NO` the GI50 was inactive: 19.5 µM.
With `O=C(Cn1c(C(=O)/C=C/c2cccs2)nc2ccccc21)c1ccc(Cl)cc1` the GI50 was inactive: 31.5 µM.
In the case of `COc1ccc(N2C(=O)c3cc(C)cnc3S2(=O)=O)cc1`, the GI50 is reported as inactive: > 100 µM.
For `Cc1ccc(S(=O)(=O)N(CC(O)COc2ccccc2)c2c(F)c(F)c(F)c(F)c2F)cc1` (configuration not stated), the GI50 was inactive: 20.2 µM.
With `O=C1Nc2cc(Cl)ccc2N=CC1NC(=O)C(c1ccccc1)c1ccccc1Cl` (configuration not stated) the GI50 was inactive: > 100 µM.
With `COc1ccc(C[C@@H](CO)NC2=C(C#N)CCC2)cc1` the GI50 was inactive: 29.8 µM.
`Cc1cc2c(cc1N)C(C)C1(CCC(=O)N2Cc2ccccc2)OCCO1` (configuration not stated) was tested, and the GI50 was inactive: > 100 µM.
In the case of `C=C(CN(C)C)C(=O)c1ccccc1Cl`, the GI50 is reported as inactive: > 100 µM.
With `O=C1C(Cl)C(c2ccc(O)cc2)N1n1cnc2ccccc2c1=O` (configuration not stated) the GI50 was inactive: > 100 µM.
In the case of `O=C1CCC(=O)N1Cc1ccccc1/N=[N+](\[O-])c1ccccc1CN1C(=O)CCC1=O`, the GI50 is reported as inactive: > 100 µM.
`CC(Br)C(=O)c1ccc2cc(Br)c3ccccc3c2c1` (configuration not stated) was tested, and the GI50 was inactive: 20.2 µM.
In the case of `CCN(CC)Cc1cc(Nc2ccnc3ccc4c(nnn4C)c23)ccc1O`, the GI50 is reported as inactive: 14 µM.
For `Cc1oc2nc(N(C)C)nc(Cl)c2c1C`, the GI50 was inactive: > 100 µM.
`Oc1cccc(C2SCc3nc4ccccc4n32)c1` (configuration not stated) was tested, and the GI50 was inactive: > 100 µM.
For `O=C(CCN1CCN(c2ccccc2)CC1)N1CCc2c([nH]c3ccccc23)C1c1cccnc1` (configuration not stated), the GI50 was inactive: > 10 µM.
With `CN(C)c1ccc(/C=C(\NC(=O)c2ccccc2)C2=NC(CCC(=O)O)C(=O)O2)cc1` (configuration not stated) the GI50 was inactive: > 50 µM.
For `CS(=O)(=O)Nc1ccc(N2Cc3c[nH]c4ccc5nccc2c5c34)cc1`, the GI50 was inactive: 12.4 µM.
In the case of `COc1cc2c(cc1OC)C(=O)/C(=C/c1ccccc1)CC2`, the GI50 is reported as inactive: 60.4 µM.
In the case of `CC(O)(CNS(=O)(=O)c1ccccc1)c1ccccc1` (configuration not stated), the GI50 is reported as inactive: > 100 µM.
`CCCCCCCCCCCC1=NCCN1` was tested, and the GI50 was inactive: > 100 µM.
`N#Cc1nc(CN2C(=O)c3ccccc3C2=O)oc1N` was tested, and the GI50 was inactive: > 100 µM.
In the case of `CC(C)=CCC/C(C)=C/Cc1c2c(c3oc(-c4ccc(O)c(O)c4)c(O)c(=O)c3c1O)C=CC(C)(C)O2`, the GI50 is reported as inactive: 1.52 µM.
With `Cc1cc(C)nc(NC(=S)Nc2cccc(Cl)c2)c1` the GI50 was inactive: > 100 µM.
`N#CCCN(CCC#N)c1ccc(/C=C2\SC(=S)NC2=O)cc1Br` was tested, and the GI50 was inactive: > 100 µM.
In the case of `O=Nn1c2ccccc2c2cc([N+](=O)[O-])ccc21`, the GI50 is reported as inactive: 14.2 µM.
In the case of `O=C(CCC(=O)Nc1cccc(Cl)c1)CC(=O)c1ccc(F)cc1`, the GI50 is reported as inactive: > 100 µM.
For `c1ccc(/N=C2/SC(c3ccccc3)(c3ccccc3)c3ccccc32)cc1`, the GI50 was inactive: > 100 µM.
In the case of `Brc1ccc2[nH]c3c(C4=NCCC4)nccc3c2c1`, the GI50 is reported as inactive: 14.5 µM.
`Cc1cc(C)nc(NS(=O)(=O)c2ccc(NC(=O)c3ccc4nc5ccccc5c(Nc5ccc(S(=O)(=O)Nc6nc(C)cc(C)n6)cc5)c4c3)cc2)n1` was tested, and the GI50 was inactive: 59.3 µM.
With `CC(=O)Oc1c2c(c(OC(C)=O)c3c1n(C(C)=O)c1ccccc1n3C(C)=O)n(C(C)=O)c1ccccc1n2C(C)=O` the GI50 was inactive: 5.04 µM.
For `COC(=O)C1(C(=O)OC)CC2=C(S(=O)(=O)c3ccccc3)C[C@@H](C#N)[C@H]2C1`, the GI50 was inactive: > 100 µM.
`FC(F)(F)c1ccc(C2ON=C(c3ccccc3)N2C23CC4CC(CC(C4)C2)C3)cc1` (configuration not stated) was tested, and the GI50 was inactive: > 10 µM.
For `CCO/C([O-])=C(\C(=O)c1ccccc1)[n+]1c(C)n(C)c2ccccc21`, the GI50 was inactive: > 100 µM.
For `O=c1[nH]c(=O)n(C2CC(O)C(CO)O2)cc1/N=N/NCCCc1ccccc1` (configuration not stated), the GI50 was inactive: > 100 µM.
With `CC(=O)c1ccccc1NC(=O)C(=O)C(C(=O)c1ccc2ccccc2c1)C1OC(=O)c2ccccc21` (configuration not stated) the GI50 was inactive: 15 µM.
With `CC(=O)O[C@H]1CC[C@@]2(C)C(=CC[C@H]3C(CC#N)[C@@](C)(C#N)CCC32)C1` (some centres not stated) the GI50 was inactive: > 100 µM.
`CO[C@]12CCC(=O)N1C=Cc1c2[nH]c2ccccc12` was tested, and the GI50 was inactive: > 100 µM.
In the case of `Cc1ccccc1Nc1cn(CCOc2ccccc2)c(=O)n(CCOc2ccccc2)c1=O`, the GI50 is reported as inactive: > 100 µM.
For `C1CC2=C(C1)C1=S(S2)SC2=C1CCC2`, the GI50 was inactive: > 100 µM.
In the case of `O=S(=O)(Oc1ccc2oc3ccccc3c2c1-c1c(OS(=O)(=O)C(F)(F)F)ccc2oc3ccccc3c12)C(F)(F)F`, the GI50 is reported as inactive: > 100 µM.
With `COc1cc(OC2OC(COC(=O)c3cc(O)c(O)c(O)c3)C(O)C(O)C2O)ccc1O` (configuration not stated) the GI50 was inactive: > 100 µM.
In the case of `CC(SC(=O)Nc1ccc(/N=N/c2ccccc2)cc1)C(=O)O` (configuration not stated), the GI50 is reported as inactive: 61.5 µM.
With `COc1cc2[nH]c3c(c2cc1OC)CCN[C@]31CC[C@]2(CC3c4c(cc(OC)c(O)c42)CCN3C)C[C@H]1OC` (some centres not stated) the GI50 was inactive: 32.3 µM.
For `CN(C)c1ccc(/C=c2/sc3nc(=O)c(-c4ccccc4NC(=O)C(F)(F)F)nn3c2=O)cc1`, the GI50 was inactive: > 100 µM.
`O=C1CN(C(=O)c2ccccc2)Cc2[nH]c3ccccc3c21` was tested, and the GI50 was inactive: > 100 µM.
With `O=C1O/C(=C(/Cl)c2cccc3ccccc23)c2ccccc21` the GI50 was inactive: > 100 µM.
For `COC(=O)[C@@]12CC3CN(Cc4c1[nH]c1ccccc41)C2CC3=O`, the GI50 was inactive: > 100 µM.
For `CCN(CC)CCCNc1ccc([N+](=O)[O-])c2nc3ccccc3c(N)c12`, the GI50 was active: 0.423 µM.
With `O=C1C[C@@H]2[C@@H](C=CC23CC3)N1O` the GI50 was inactive: > 100 µM.
`CN1C(=O)c2ccccc2OC12C=Cc1ccc(O)cc1O2` (configuration not stated) was tested, and the GI50 was inactive: 43.1 µM.
In the case of `CCOC(=O)c1cc(C2CCN(CC(C)CC)C2=S)c(-c2cc(C)no2)[nH]1` (configuration not stated), the GI50 is reported as inactive: > 100 µM.
In the case of `CC(C)(O)CCC(O)C(C)(O)C1CCC2(O)C3=CC(=O)C4(O)CC(O)C(O)CC4(C)C3CCC12C.CC(C)(O)CCC(O)C(C)(O)C1CCC2(O)C3=CC(=O)C4CC(O)C(O)CC4(C)C3CCC12C` (configuration not stated), the GI50 is reported as inactive: > 100 µM.
With `CC(=O)c1ccc(NC(=O)COC(=O)c2cccc3c(=O)c4ccccc4[nH]c23)cc1` the GI50 was inactive: 81.3 µM.
`CC12CCC(C)(c3cc(O)c(O)cc31)c1cc(O)c(O)cc12` was tested, and the GI50 was inactive: 19.6 µM.
With `CN(C)/N=C1\C=C2CC[C@H](O[Si](C)(C)C(C)(C)C)[C@@]2(C)CC1` the GI50 was inactive: 22 µM.
`Cc1cn(C2CC(O)C(COP(=O)(O)OC3CC(n4c[n+]([BH2-]C#N)c5c(=O)[nH]c(N)nc54)OC3CO)O2)c(=O)[nH]c1=O` (configuration not stated) was tested, and the GI50 was inactive: > 100 µM.
For `COC1=CC(=O)C2[C@H]3Cc4ccccc4[C@H]3C2(C)C1=O` (some centres not stated), the GI50 was inactive: > 100 µM.
With `COc1cc(C2c3cc4c(cc3[C@@H](NCCN3CCCCC3)C3COC(=O)[C@H]23)OCO4)cc(OC)c1O` (some centres not stated) the GI50 was inactive: 3.72 µM.
For `COC(=O)C1=Cc2cc(OC)c(OC)cc2[C@H](c2ccc(OC)c(OC)c2)C1C(=O)OC` (some centres not stated), the GI50 was inactive: > 100 µM.
In the case of `c1ccc2c(c1)OC(N1CCCC1)c1cnc(N3CCOCC3)nc1-2` (configuration not stated), the GI50 is reported as inactive: 43.6 µM.
In the case of `Cc1ccc2ccc(=O)oc2c1`, the GI50 is reported as inactive: > 100 µM.
In the case of `CN(C)/N=N/c1ccc(C(N)=O)cc1`, the GI50 is reported as inactive: > 100 µM.
In the case of `CSc1ccc2c(c1)c(CCN)c(C)n2Cc1ccccc1Cl`, the GI50 is reported as inactive: 1.6 µM.
